# Results: PMC12040169 (PLOS Biology, 2025)
# The list shows a part of the results.
# System: T1, C. trachomatis L2/434/Bu expressing GFP (CTL2-GFP)
# T1 construct: L2/434/Bu GFP intracellular growth in HeLa cells
# Parameters: species or system HeLa; C. trachomatis total inclusion area by high-content imaging, normalised to DMSO
# Conditions: total inclusion area; 28.5 h, 10 µM; inhibitor
# Procedure, shortened: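 High-content imaging followed the bulk GFP/resorufin measurement: fixed, Hoechst-stained cells were scored for GFP inclusions and host nuclei per well. Total inclusion area and count served as growth proxies, nuclei number as the viability proxy. MIC calculation matched the bulk assay.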
row,SMILES,% of control remaining
1,CCN(CC(=O)Nc1ccc2c(c1)OCCO2)S(=O)(=O)c1ccsc1C(=O)O [CBK296717],105.921
2,Cc1ccc(-c2nn(CCC#N)cc2C(=O)N2CCCCC2)cc1C [CBK306131],42.5102
3,COC(=O)c1cc(CN2CCCN(S(=O)(=O)c3ccc(C(F)(F)F)cc3Cl)CC2)cn1C [CBK063097],87.8104
4,O=S(=O)(NCc1ccccc1)c1ccc(Cl)cc1 [CBK086159],92.9393
5,CCOc1cccc(-c2cn3ccnc3c(N3CCN(CCO)CC3)n2)c1 [CBK066612],129.137
6,O=C(NCCc1c[nH]c2ccccc12)c1ccc(-c2ccco2)nc1N1CCN(C(=O)c2ccco2)CC1 [CBK076217],101.391
7,CC(=O)N1CCC[C@H]2NC(=O)CNC(=O)C3(C/C=C/C[C@H]21)CCN(c1ncccn1)CC3 [CBK292042],83.1552
8,CN(Cc1c(C2CCNCC2)[nH]c2ncccc12)C1CCCCC1 [CBK285079],89.2636
9,CCNC(=O)N1Cc2nc[nH]c2C[C@H]1C(=O)NCc1ccc(C#N)cc1 [CBK288975],109.568
10,CC(=O)[C@H]1CC[C@H]2[C@@H]3CC[C@H]4CC5(CC[C@]4(C)[C@H]3CC[C@]12C)N=C1C=C(C(C)(C)C)ON1C1C=CCC15 (stereo partly drawn) [CBK303246],0.2873
11,CCC(c1nc2ccccc2c(=O)n1CCCn1ccnc1)N1C(=O)c2ccccc2C1=O (stereo not drawn) [CBK268560],86.4488
12,Cc1ccc(Cl)cc1N1CCN(CC(O)COCc2ccc3c(c2)OCO3)CC1 (stereo not drawn) [CBK278308C],85.829
13,CN(C)c1nc2c(c(=O)[nH]c(=O)n2C)n1Cc1cccc2ccccc12 [CBK140560],120.85
14,O=C(CSc1ccc2nnc(-c3cccc(F)c3)n2n1)Nc1nccs1 [CBK287522],104.164
15,Fc1ccc(-c2n[nH]c(=S)n2CCCN2CCOCC2)cc1 [CBK267127],113.135
16,COc1ccc(Cl)cc1-n1c(-c2ccc3ccccc3n2)n[nH]c1=S [CBK288382],99.4017
17,COc1c(C)cnc(COC(=O)N2C[C@@H](C)O[C@@H](C)C2)c1C [CBK200143],73.5407
18,O=C(COc1cccnc1)N1CCCC2(CCN(C(=O)Cc3c[nH]c4ccccc34)C2)C1 (stereo not drawn) [CBK131608],68.4479
19,CCOc1ccc(-c2ccnc(NCC3CCCOC3)n2)cc1C(=O)O (stereo not drawn) [CBK307694],94.4389
20,CC/C(=C\c1sc2ccc3ccccc3c2[n+]1CCCS(=O)[O-])SC [CBK264941],102.92
21,CCN1CCCC1CN(Cc1ccncc1)Cc1ccoc1 (stereo not drawn) [CBK283171],99.4607
22,COc1cc(C)c(Nc2cc(-c3ccc(F)c(F)c3)ncn2)cc1OC [CBK090787],50.7615
23,O=C(c1ccc([N+](=O)[O-])cc1Cl)N1CCN(Cc2ccccc2)CC1 [CBK261778],99.9435
24,Cc1cc(N2CCCC2)c(F)cc1CN1CCC(CO)C1 (stereo not drawn) [CBK282916],91.8899
25,COc1ccc(C(=O)C2=C(O)C(=O)N(CCN(C)C)C2c2cccc([N+](=O)[O-])c2)cc1C (stereo not drawn) [CBK264875],105.068
26,O=C(c1ccc(OC(F)(F)F)cc1)N1CCC2(CCCNC2)C1 (stereo not drawn) [CBK137156C],78.8387

row,SMILES,% of control remaining
1,Cc1nn(-c2ccc(F)cc2)c2[nH]c(=O)c(CNC3CC3)cc12 [CBK283121],98.0827
2,O=C1NC2(CCSCC2)Oc2ccccc21 [CBK007488],81.1767
3,O=C(NC(c1ccccc1)c1ccccc1)N1CCCC(CO)C1 (stereo not drawn) [CBK156036],98.0649
4,CN(C)CCn1c(C(=O)O)cc2ccccc21 [CBK268234C],88.6101
5,O=S(=O)(Nc1cccc(-c2nnn[nH]2)c1)c1ccc(F)cc1 [CBK050470],99.1071
6,Cc1ccc(C(=O)NC(C)c2nc3ccccc3n2Cc2ccc(C(=O)O)o2)cc1 (stereo not drawn) [CBK295159],98.4819
7,CC(C)N1CCCC(CNC(=O)C2Cc3cc(Cl)ccc3O2)C1 (stereo not drawn) [CBK282686],108.428
8,O=S(=O)(CCN1CCN(Cc2ccccc2)CC1)c1ccc(F)cc1 [CBK074809],60.011
9,CC(C)NC(=O)C1(Cc2ccc(-c3ccccc3F)cc2)CCN(C(=O)C(C)C)CC1 [CBK285754],98.1912
10,CSc1nc2ccc(S(=O)(=O)NCCOc3ccc(Cl)cc3)cc2s1 [CBK268219],98.1289
11,c1ccc(CCN2CCN(Cc3cccnc3)CC2)cc1 [CBK126424],104.133
12,Cc1cc(S(=O)(=O)Nc2ccccc2-c2nncn2C)c(C)o1 [CBK306414],53.4194
13,CS(=O)(=O)c1ccc(-c2ccc(OCC3CCN(C(=O)c4cccc(C#N)c4)CC3)nc2)cc1 [CBK162283],54.2668
14,CCOc1oc2cc(O)ccc2c1C(=O)CSC1CCCCC1 [CBK022262],33.0435
15,Brc1cn2ccnc2c(Nc2ccc3[nH]ccc3c2)n1 [CBK037449],82.5184
16,O=C(O)C1C2C=CC(O2)C1C(=O)Nc1ccc(S(=O)(=O)N2CCc3ccccc32)cc1 (stereo not drawn) [CBK268176],80.0168
17,CCCc1nn(CC(=O)OC)c(=O)c2cc3ccsc3n12 [CBK284144],95.428
18,CCC(=O)N1CCN(CCNC=C2C(=O)CC(c3cccs3)CC2=O)CC1 (stereo not drawn) [CBK264817],111.863
19,COc1ccc(C(=O)Nc2ccc(N3CCN(C(=O)C(C)(C)C)CC3)cc2)cc1 [CBK270266],82.0995
20,O=C(CC(NC(=O)c1ccccc1)c1ccccc1)Nc1cccc2ccccc12 (stereo not drawn) [CBK263901],75.6879
21,CC(NC(=O)C1CCN(CCN2C(=O)c3ccccc3C2=O)CC1)c1ccc(F)cc1 (stereo not drawn) [CBK148750],100.89
22,CN1CCC(=NNC(=O)CN(c2ccc(Oc3ccccc3)cc2)S(C)(=O)=O)CC1 [CBK262338],107.363
23,CCC(C(=O)O)c1ccc(-n2sc3ccccc3c2=O)cc1 (stereo not drawn) [CBK011773],83.9896
24,O=C(CSc1ccc2ccccc2c1)Nc1ccc(Cl)c(C(=O)O)c1 [CBK268239],114.746
25,O=C(CCc1ccc(S(=O)(=O)NC2CCCCC2)cc1)Nc1ccc2c(c1)OCCO2 [CBK266845],89.653
26,O=C(CSc1cccc2c(SCC(=O)c3ccccc3)cccc12)c1ccccc1 [CBK261255],96.2243

row,SMILES,% of control remaining
1,c1cnc(N2CCN(Cc3ccc4c(c3)OCO4)CC2)c(OC2CCCCC2)n1 [CBK082833T],80.5884
2,COc1ncc(-c2nccnc2N2CCCC2CO)c(OC)n1 (stereo not drawn) [CBK036638],90.9068
3,Cc1ccc(C(=O)O)cc1NC(=O)c1cccc(C(=O)Nc2cc(C(=O)O)ccc2C)c1 [CBK262797],120.486
4,CSc1ncc(Cl)c(C(=O)Nc2nc(-c3ccc(S(=O)(=O)N4CCOCC4)cc3)cs2)n1 [CBK269064],73.0662
5,Cc1ccc(C=C(c2ccccc2)c2nc3sc(C(=O)O)c(C)c3c(=O)[nH]2)s1 [CBK295638],99.471
6,CC(=O)Nc1ccc(S(=O)(=O)N2CCN(S(=O)(=O)c3ccc(C)cc3)CC2)cc1 [CBK264276],116.808
7,O=S(=O)(Nc1ccc(N2CCNCC2)c2ccccc12)c1ccc(Br)cc1F [CBK200014C],64.9788
8,Fc1ccccc1COc1ccccc1CNCCN1CCOCC1 [CBK278222C],48.0794
9,Nc1nc(CSc2nnc(-c3ccco3)n2-c2ccccc2)cs1 [CBK269693],78.5835
10,COc1cc(/C=C/C(=O)NCc2ccc(C(=O)O)cc2)ccc1O [CBK286728],114.368
11,COc1ccccc1/C=C/CN(C)CCN(C)C [CBK261888],99.5409
12,Cc1cc(CN2CCN(S(=O)(=O)c3ccc(C(=O)c4ccccc4)cc3)CC2)cc(C)c1O [CBK062933],88.5178
13,C#CCNC(=O)[C@@H]1Cc2cn(Cc3c(C)noc3C)c3cccc(c23)[C@H](CC(C)C)N1 [CBK289425],125.039
14,Cn1nccc1CN(Cc1ccc(F)cc1)Cc1cccnc1 [CBK282261],95.2988
15,CCN1CCN(c2cc(C)nc3c(-c4ccccc4)cnn23)CC1 [CBK287793],100.515
16,COc1ccc2[nH]c(NCCCO)nc2c1 [CBK264155],117.004
17,O=C1NC(=O)C(CC(=O)N2CCC3(CCCNC3)C2)N1 (stereo not drawn) [CBK153232C],95.8788
18,Cc1cc(C)c(OCCCN2CCCCCC2)c(Cl)c1 [CBK266026G],94.9199
19,CC(C)(C)c1csc(C(=Cc2ccc(C#N)cc2)C(N)=O)n1 [CBK001154],91.8433
20,Cc1nc(-c2ccc(CCNC(=O)c3cc(O)nc4ccccc34)s2)cs1 [CBK297720],109.409
21,Fc1ccccc1CN(CCCn1ccnc1)Cc1ccco1 [CBK282952],81.6193
22,COc1ccc(-n2cc(-c3ccc(F)cc3)nn2)cc1OC [CBK113110],97.5221
23,COc1cc(C#N)ccc1Oc1nnnn1-c1ccccc1 [CBK002571],80.6147
24,CCn1c(=O)[nH]c(=O)c2cnc(-c3ccc(OC)cc3)nc21 [CBK291259],73.3391
25,CCn1cncc1CN1CCN(CC2(c3ccc(C)cc3)CC2)CC1 [CBK283307],96.4925
26,Cc1ccc(C(=O)N2CCC(Cc3ccccc3-c3ccccc3)(C(=O)N(C)C)CC2)s1 [CBK285677],109.488
